Test results reported in the supplement of paper PMC12423691.
This is one part of the list. Binding of human transcription factors and regulators to the viral nucleoprotein by AlphaScreen, crude cell-free proteins, amounts not normalised, one pass. Fold of the Venus control; higher = more signal. No active / inactive call. Single-pass screen; sequences are the whole Swiss-Prot entries looked up by name.

B1: ABRA, Q8N0Z2 (protein)
chain: MAPGEKESGEGPAKSALRKIRTATLVISLARGWQQWANENSIRQAQEPTGWLPGGTQDSPQAPKPITPPTSHQKAQSAPKSPPRLPEGHGDGQSSEKAPEVSHIKKKEVSKTVVSKTYERGGDVSHLSHRYERDAGVLEPGQPENDIDRILHSHGSPTRRRKCANLVSELTKGWRVMEQEEPTWRSDSVDTEDSGYGGEAEERPEQDGVQVAVVRIKRPLPSQVNRFTEKLNCKAQQKYSPVGNLKGRWQQWADEHIQSQKLNPFSEEFDYELAMSTRLHKGDEGYGRPKEGTKTAERAKRAEEHIYREMMDMCFIICTMARHRRDGKIQVTFGDLFDRYVRISDKVVGILMRARKHGLVDFEGEMLWQGRDDHVVITLLK
B2: BRMS1, Q9HCU9 (protein)
chain: MPVQPPSKDTEEMEAEGDSAAEMNGEEEESEEERSGSQTESEEESSEMDDEDYERRRSECVSEMLDLEKQFSELKEKLFRERLSQLRLRLEEVGAERAPEYTEPLGGLQRSLKIRIQVAGIYKGFCLDVIRNKYECELQGAKQHLESEKLLLYDTLQGELQERIQRLEEDRQSLDLSSEWWDDKLHARGSSRSWDSLPPSKRKKAPLVSGPYIVYMLQEIDILEDWTAIKKARAAVSPQKRKSDGP
B3: ZNF446, Q9NWS9 (protein)
chain: MPSPLGPPCLPVMDPETTLEEPETARLRFRGFCYQEVAGPREALARLRELCCQWLQPEAHSKEQMLEMLVLEQFLGTLPPEIQAWVRGQRPGSPEEAAALVEGLQHDPGQLLGWITAHVLKQEVLPAAQKTEEPLGSPHPSGTVESPGEGPQDTRIEGSVQLSCSVKEEPNVDGQEVAPSSPPLAAQSPEGNHGHQEPASTSFHPPRIQEEWGLLDRSQKELYWDAMLEKYGTVVSLGLPPHQPEAQAQSELGMLLTGTGVCRSLRSGNESEGPPGCPEAQPPQGPGPAAWEGLSGAATPAPTVRPGTPPVPTQPTPAETRLEPAATPRKPYTCEQCGRGFDWKSVFVIHHRTHTSGPGVQSPGLATGESTEKPPQGEVAFPHHPRRSLTGPRSYPCEECGCSFSWKSQLVIHRKSHTGQRRHFCSDCGRAFDWKSQLVIHRKGHRPEVP
B4: AHR, P35869 (protein)
chain: MNSSSANITYASRKRRKPVQKTVKPIPAEGIKSNPSKRHRDRLNTELDRLASLLPFPQDVINKLDKLSVLRLSVSYLRAKSFFDVALKSSPTERNGGQDNCRAANFREGLNLQEGEFLLQALNGFVLVVTTDALVFYASSTIQDYLGFQQSDVIHQSVYELIHTEDRAEFQRQLHWALNPSQCTESGQGIEEATGLPQTVVCYNPDQIPPENSPLMERCFICRLRCLLDNSSGFLAMNFQGKLKYLHGQKKKGKDGSILPPQLALFAIATPLQPPSILEIRTKNFIFRTKHKLDFTPIGCDAKGRIVLGYTEAELCTRGSGYQFIHAADMLYCAESHIRMIKTGESGMIVFRLLTKNNRWTWVQSNARLLYKNGRPDYIIVTQRPLTDEEGTEHLRKRNTKLPFMFTTGEAVLYEATNPFPAIMDPLPLRTKNGTSGKDSATTSTLSKDSLNPSSLLAAMMQQDESIYLYPASSTSSTAPFENNFFNESMNECRNWQDNTAPMGNDTILKHEQIDQPQDVNSFAGGHPGLFQDSKNSDLYSIMKNLGIDFEDIRHMQNEKFFRNDFSGEVDFRDIDLTDEILTYVQDSLSKSPFIPSDYQQQQSLALNSSCMVQEHLHLEQQQQHHQKQVVVEPQQQLCQKMKHMQVNGMFENWNSNQFVPFNCPQQDPQQYNVFTDLHGISQEFPYKSEMDSMPYTQNFISCNQPVLPQHSKCTELDYPMGSFEPSPYPTTSSLEDFVTCLQLPENQKHGLNPQSAIITPQTCYAGAVSMYQCQPEPQHTHVGQMQYNPVLPGQQAFLNKFQNGVLNETYPAELNNINNTQTTTHLQPLHHPSEARPFPDLTSSGFL
B5: AGT, P01019 (protein)
chain: MAPAGVSLRATILCLLAWAGLAAGDRVYIHPFHLVIHNESTCEQLAKANAGKPKDPTFIPAPIQAKTSPVDEKALQDQLVLVAAKLDTEDKLRAAMVGMLANFLGFRIYGMHSELWGVVHGATVLSPTAVFGTLASLYLGALDHTADRLQAILGVPWKDKNCTSRLDAHKVLSALQAVQGLLVAQGRADSQAQLLLSTVVGVFTAPGLHLKQPFVQGLALYTPVVLPRSLDFTELDVAAEKIDRFMQAVTGWKTGCSLMGASVDSTLAFNTYVHFQGKMKGFSLLAEPQEFWVDNSTSVSVPMLSGMGTFQHWSDIQDNFSVTQVPFTESACLLLIQPHYASDLDKVEGLTFQQNSLNWMKKLSPRTIHLTMPQLVLQGSYDLQDLLAQAELPAILHTELNLQKLSNDRIRVGEVLNSIFFELEADEREPTESTQQLNKPEVLEVTLNRPFLFAVYDQSATALHFLGRVANPLSTA
B6: LRP5, O75197 (protein)
chain: MEAAPPGPPWPLLLLLLLLLALCGCPAPAAASPLLLFANRRDVRLVDAGGVKLESTIVVSGLEDAAAVDFQFSKGAVYWTDVSEEAIKQTYLNQTGAAVQNVVISGLVSPDGLACDWVGKKLYWTDSETNRIEVANLNGTSRKVLFWQDLDQPRAIALDPAHGYMYWTDWGETPRIERAGMDGSTRKIIVDSDIYWPNGLTIDLEEQKLYWADAKLSFIHRANLDGSFRQKVVEGSLTHPFALTLSGDTLYWTDWQTRSIHACNKRTGGKRKEILSALYSPMDIQVLSQERQPFFHTRCEEDNGGCSHLCLLSPSEPFYTCACPTGVQLQDNGRTCKAGAEEVLLLARRTDLRRISLDTPDFTDIVLQVDDIRHAIAIDYDPLEGYVYWTDDEVRAIRRAYLDGSGAQTLVNTEINDPDGIAVDWVARNLYWTDTGTDRIEVTRLNGTSRKILVSEDLDEPRAIALHPVMGLMYWTDWGENPKIECANLDGQERRVLVNASLGWPNGLALDLQEGKLYWGDAKTDKIEVINVDGTKRRTLLEDKLPHIFGFTLLGDFIYWTDWQRRSIERVHKVKASRDVIIDQLPDLMGLKAVNVAKVVGTNPCADRNGGCSHLCFFTPHATRCGCPIGLELLSDMKTCIVPEAFLVFTSRAAIHRISLETNNNDVAIPLTGVKEASALDFDVSNNHIYWTDVSLKTISRAFMNGSSVEHVVEFGLDYPEGMAVDWMGKNLYWADTGTNRIEVARLDGQFRQVLVWRDLDNPRSLALDPTKGYIYWTEWGGKPRIVRAFMDGTNCMTLVDKVGRANDLTIDYADQRLYWTDLDTNMIESSNMLGQERVVIADDLPHPFGLTQYSDYIYWTDWNLHSIERADKTSGRNRTLIQGHLDFVMDILVFHSSRQDGLNDCMHNNGQCGQLCLAIPGGHRCGCASHYTLDPSSRNCSPPTTFLLFSQKSAISRMIPDDQHSPDLILPLHGLRNVKAIDYDPLDKFIYWVDGRQNIKRAKDDGTQPFVLTSLSQGQNPDRQPHDLSIDIYSRTLFWTCEATNTINVHRLSGEAMGVVLRGDRDKPRAIVVNAERGYLYFTNMQDRAAKIERAALDGTEREVLFTTGLIRPVALVVDNTLGKLFWVDADLKRIESCDLSGANRLTLEDANIVQPLGLTILGKHLYWIDRQQQMIERVEKTTGDKRTRIQGRVAHLTGIHAVEEVSLEEFSAHPCARDNGGCSHICIAKGDGTPRCSCPVHLVLLQNLLTCGEPPTCSPDQFACATGEIDCIPGAWRCDGFPECDDQSDEEGCPVCSAAQFPCARGQCVDLRLRCDGEADCQDRSDEADCDAICLPNQFRCASGQCVLIKQQCDSFPDCIDGSDELMCEITKPPSDDSPAHSSAIGPVIGIILSLFVMGGVYFVCQRVVCQRYAGANGPFPHEYVSGTPHVPLNFIAPGGSQHGPFTGIACGKSMMSSVSLMGGRGGVPLYDRNHVTGASSSSSSSTKATLYPPILNPPPSPATDPSLYNMDMFYSSNIPATARPYRPYIIRGMAPPTTPCSTDVCDSDYSASRWKASKYYLDLNSDSDPYPPPPTPHSQYLSAEDSCPPSPATERSYFHLFPPPPSPCTDSS
B7: RFX6, Q8HWS3 (protein)
chain: MAKVPELEDTFLQAQPAPQLSPGIQEDCCVQLLGKGLLVYPEETVYLAAEGQPGGEQGGGEKGEDPELPGAVKSEMHLNNGNFSSEEEDADNHDSKTKAADQYLSQKKTITQIVKDKKKQTQLTLQWLEENYIVCEGVCLPRCILYAHYLDFCRKEKLEPACAATFGKTIRQKFPLLTTRRLGTRGHSKYHYYGIGIKESSAYYHSVYSGKGLTRFSGSKLKNEGGFTRKYSLSSKTGTLLPEFPSAQHLVYQGCISKDKVDTLIMMYKTHCQCILDNAINGNFEEIQHFLLHFWQGMPDHLLPLLENPVIIDIFCVCDSILYKVLTDVLIPATMQEMPESLLADIRNFAKNWEQWVVSSLENLPEALTDKKIPIVRRFVSSLKRQTSFLHLAQIARPALFDQHVVNSMVSDIERVDLNSIGSQALLTISGSTDTESGIYTEHDSITVFQELKDLLKKNATVEAFIEWLDTVVEQRVIKTSKQNGRSLKKRAQDFLLKWSFFGARVMHNLTLNNASSFGSFHLIRMLLDEYILLAMETQFNNDKEQELQNLLDKYMKNSDASKAAFTASPSSCFLANRNKGSMVSSDAVKNESHVETTYLPLPSSQPGGLGPALHQFPAGNTDNMPLTGQMELSQIAGHLMTPPISPAMASRGSVINQGPMAGRPPSVGPVLSAPSHCSTYPEPIYPTLPQANHDFYSTSSNYQTVFRAQPHSTSGLYPHHTEHGRCMAWTEQQLSRDFFSGSCAGSPYNSRPPSSYGPSLQAQDSHNMQFLNTGSFNFLSNTGAASCQGATLPPNSPNGYYGSNINYPESHRLGSMVNQHVSVISSIRSLPPYSDIHDPLNILDDSGRKQTSSFYTDTSSPVACRTPVLASSLQTPIPSSSSQCMYGTSNQYPAQETLDSHGTSSREMVSSLPPINTVFMGTAAGGT

Biological target: nucleoprotein N of Crimean-Congo hemorrhagic fever virus
Assay: AlphaScreen luminescence signal relative to Venus negative control (fold); higher = stronger binding to CCHFV N
Experimental: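 AlphaScreen binding of cell-free made, FLAG-GST-tagged human transcription factors and regulators (crude translation products) to biotinylated N protein; signal as fold of the FLAG-GST-Venus control. One pass.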

Binder | AlphaScreen luminescence signal
B1 | 2.6
B2 | 1.81
B3 | 1.4
B4 | 4
B5 | 4.23
B6 | 3.07
B7 | 2.28
